Reference: the supplement of paper PMC10126150
Values marked as one replicate rest on one cluster of the flow cell; about a third of the high ones do not repeat.

Each sequence was assayed on ATP (assay: switch fluorescence ratio, 500 uM ATP over buffer (Cy3 cluster intensity, sum of 5 cycles each) (fold (ratio)); higher = stronger signal-on switching upon ATP binding; sequences stand for … in TCGTCGGCAGCGTCAGATGTGTATAAGAGACAGTTTTTTTTTTTTTTTTTTTTTTTTT…TC). Details: aptamer strand: ATP DNA aptamer (quencher-CACCTGGGGGAGTATTGCGGAGGAAGG + anchor), 100 nM annealed; ATP concentration: 500 uM; one replicate.
Summary of the method: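 The fluorescence ratio divides summed target-cycle Cy3 intensity by summed buffer-cycle Cy3 intensity for each cluster and is averaged per switch-domain sequence. Cy3-labelled switching-strand clusters on a modified Illumina MiSeq flow-cell were annealed to 100 nM quencher-labelled ATP aptamer, then imaged in selection buffer and again after 15 min with 500 uM ATP at 22 °C. Five such cycles were run, with NaOH stripping and re-annealing between them, and clusters outside 100-1000 RFU were excluded.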
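Note: ATP exposure 15 min at 22 °C before imaging.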

| Sequence | switch fluorescence ratio |
| --- | --- |
| CTGCAAGGAA | 1 |
| CTGCACTAGG | 1.23 |
| CTGCATGGCT | 1.08 |
| CTGCATGTTC | 1.84 |
| CTGCCAAATT | 0.992 |
| CTGCCACTTT | 1.05 |
| CTGCCAGCGG | 1.01 |
| CTGCCCAGTG | 3.61 |
| CTGCCTCGAA | 1.04 |
| CTGCGAAGGT | 1.01 |
| CTGCGCCTCC | 2.38 |
| CTGCGCGAGG | 1.27 |
| CTGCGCGCAG | 0.99 |
| CTGCGGACCC | 1.19 |
| CTGCGGTTGG | 1.03 |
| CTGCGTTCCG | 0.999 |
| CTGCTACTGA | 1.07 |
| CTGCTCAGGC | 1.03 |
| CTGCTCATCG | 0.999 |
| CTGCTCTAGG | 1.08 |
| CTGCTGCCTG | 0.991 |
| CTGGAAAGT | 0.956 |
| CTGGAACAGG | 1.06 |
| CTGGAGAGTT | 0.95 |
| CTGGAGGGTT | 1.01 |
| CTGGATAAC | 1.02 |

| Sequence | switch fluorescence ratio |
| --- | --- |
| CTGGCAAGGC | 1.17 |
| CTGGCAAGGG | 1.09 |
| CTGGCATCTG | 0.988 |
| CTGGCGGCAG | 1.02 |
| CTGGCGGGAG | 0.997 |
| CTGGCGTACT | 1.01 |
| CTGGCGTCGT | 0.983 |
| CTGGCTACCC | 1.71 |
| CTGGCTTCTG | 1.06 |
| CTGGGAACT | 0.988 |
| CTGGGACTGC | 1.01 |
| CTGGGATGCG | 1.04 |
| CTGGGCAGCG | 0.999 |
| CTGGGCCCCC | 1.03 |
| CTGGGCCTGT | 1.08 |
| CTGGGGA | 1.01 |
| CTGGGGACAG | 0.946 |
| CTGGGGGATT | 0.966 |
| CTGGGGGCC | 1.04 |
| CTGGGGTAAC | 1.02 |
| CTGGGTAGG | 1.01 |
| CTGGGTGTTT | 1.02 |
| CTGGGTTAGA | 0.966 |
| CTGGGTTCAC | 1.01 |
| CTGGGTTCGG | 0.968 |
| CTGGGTTGCT | 1.02 |

| Sequence | switch fluorescence ratio |
| --- | --- |
| CTGGGTTGTC | 0.988 |
| CTGGTATATG | 1.01 |
| CTGGTCACCT | 1.07 |
| CTGGTCAGGA | 0.994 |
| CTGGTCCGAC | 1.34 |
| CTGGTCCGTC | 0.998 |
| CTGGTCTACT | 1 |
| CTGGTCTTCG | 1.05 |
| CTGGTGATCC | 0.976 |
| CTGGTGTCTT | 0.975 |
| CTGGTTCCTG | 0.944 |
| CTGGTTCGCA | 1.06 |
| CTGGTTCTCG | 0.995 |
| CTGGTTGACT | 1.03 |
| CTGTAACAAG | 1 |
| CTGTACAAAT | 0.983 |
| CTGTACGTCG | 0.983 |
| CTGTAGTTTA | 1.04 |
| CTGTATGGAT | 0.977 |
| CTGTCACGTT | 0.973 |
| CTGTCATTGG | 1.04 |
| CTGTCCGATA | 1.07 |
| CTGTCCGGAT | 0.969 |
| CTGTCGAACT | 1.03 |
| CTGTCTTACT | 1.05 |
| CTGTCTTTG | 0.996 |

| Sequence | switch fluorescence ratio |
| --- | --- |
| CTGTGAAGGG | 0.962 |
| CTGTGACATT | 1.05 |
| CTGTGGAAGC | 1.02 |
| CTGTGGGCGT | 0.973 |
| CTGTGTAGGC | 1.05 |
| CTGTGTTCCT | 1.03 |
| CTGTGTTCGC | 0.993 |
| CTGTTAAAAC | 0.992 |
| CTGTTAAGAT | 0.973 |
| CTGTTACGGA | 0.985 |
| CTGTTCGTTT | 0.964 |
| CTGTTTATCC | 1.02 |
| CTGTTTGCAT | 1.09 |
| CTGTTTGGGC | 0.969 |
| CTGTTTTAGC | 0.952 |
| CTGTTTTCTG | 0.981 |
| CTTAAAACCC | 1.01 |
| CTTAAAAGCA | 0.981 |
| CTTAAAGGAA | 0.978 |
| CTTAAATCCC | 0.965 |
| CTTAAATGAG | 0.982 |
| CTTAACAGGG | 0.956 |
| CTTAACGGCT | 0.995 |
| CTTAATCGGT | 1.02 |
| CTTACATTGG | 1.01 |
| CTTACCGGTC | 0.994 |

| Sequence | switch fluorescence ratio |
| --- | --- |
| CTTACTAC | 1.17 |
| CTTACTAGGC | 1.13 |
| CTTACTGCTA | 1.18 |
| CTTAGAAATT | 0.998 |
| CTTAGGGCTT | 0.962 |
| CTTAGGTGGG | 0.985 |
| CTTATAATCT | 0.983 |
| CTTATGCATG | 1.01 |
| CTTATGGCGG | 0.964 |
| CTTATGTCAG | 0.924 |
| CTTATGTTTG | 0.938 |
| CTTATTTC | 0.989 |
| CTTATTTTCT | 1.07 |
| CTTCAAGTGG | 1.15 |
| CTTCAATTCG | 1.01 |
| CTTCACGGTG | 1.15 |
| CTTCACTGGA | 1.24 |
| CTTCCAGGTA | 1.56 |
| CTTCGACTGT | 1.01 |
| CTTCGCCGGT | 1.18 |
| CTTCGGACAC | 2.84 |
| CTTCGTGCCC | 1.24 |
| CTTCTAGAAA | 1.03 |
| CTTCTGACCC | 1.36 |
| CTTCTTATGA | 0.945 |
| CTTCTTTAGT | 1.02 |

| Sequence | switch fluorescence ratio |
| --- | --- |
| CTTGAACCGC | 1.24 |
| CTTGAAGCAT | 1.09 |
| CTTGACACTG | 1.02 |
| CTTGACGGA | 0.963 |
| CTTGACTGG | 1.02 |
| CTTGAGCATA | 1.77 |
| CTTGATAAAG | 0.997 |
| CTTGATCGGG | 1.05 |
| CTTGCATCT | 0.994 |
| CTTGCCGGGC | 0.987 |
| CTTGCGAGGC | 1.49 |
| CTTGCTAGC | 0.995 |
| CTTGCTCCAA | 2.06 |
| CTTGCTTACT | 1.11 |
| CTTGCTTGTC | 1.03 |
| CTTGGAACGC | 1.05 |
| CTTGGATCGT | 0.995 |
| CTTGGCACGA | 1.02 |
| CTTGGCTAAA | 1 |
| CTTGGCTAGG | 1.03 |
| CTTGGGCCTG | 1.2 |
| CTTGGGGTG | 0.998 |
| CTTGGGTATG | 1.02 |
| CTTGGGTGGG | 0.966 |
| CTTGGTAGAT | 1.01 |
| CTTGGTCCAG | 0.998 |

| Sequence | switch fluorescence ratio |
| --- | --- |
| CTTGGTGAGG | 0.979 |
| CTTGGTGTT | 1 |
| CTTGGTTCAT | 0.999 |
| CTTGTAGCTG | 0.975 |
| CTTGTCAATA | 1.3 |
| CTTGTCGGA | 1.02 |
| CTTGTGGTTT | 1.02 |
| CTTGTTCCCC | 0.951 |
| CTTTAATCGC | 1.02 |
| CTTTACACAT | 1.08 |
| CTTTATAGAC | 1.02 |
| CTTTATGATA | 1.03 |
| CTTTATGCTT | 0.954 |
| CTTTATTTT | 0.973 |
| CTTTCACCT | 1.08 |
| CTTTCAGACA | 1 |
| CTTTCCGGGC | 1.28 |
| CTTTCGTGCG | 0.99 |
| CTTTGACGAC | 1.13 |
| CTTTGAGGAA | 0.994 |
| CTTTGAGGTA | 0.991 |
| CTTTGAGTAA | 1.04 |
| CTTTGAGTTT | 0.978 |
| CTTTGATAAA | 0.979 |
| CTTTGATCCA | 0.972 |
| CTTTGCCGTC | 0.979 |

| Sequence | switch fluorescence ratio |
| --- | --- |
| CTTTGCCTTA | 0.99 |
| CTTTGCTGAG | 1 |
| CTTTGGAGCC | 1.03 |
| CTTTGGTGAG | 1.03 |
| CTTTGTAACG | 1.04 |
| CTTTGTGCTA | 1.03 |
| CTTTGTTACA | 0.952 |
| CTTTTAGCGC | 1.01 |
| CTTTTATGTT | 0.936 |
| CTTTTCATTA | 0.959 |
| CTTTTCCAAC | 1.22 |
| CTTTTCCAGT | 1.03 |
| CTTTTCGAC | 1 |
| CTTTTCTATT | 1.01 |
| CTTTTGGGTG | 1.03 |
| CTTTTGTGGG | 0.956 |
| CTTTTGTGTA | 0.965 |
| CTTTTTAGAT | 1.01 |
| GAAAAACCAC | 1.15 |
